# Measurements taken from patent US20250213531A1, “5-MEO-DTM FOR THE TREATMENT OF BIPOLAR DISORDER” (GH RESEARCH IRELAND LIMITED, priority 2022, published 2025).
# System: patients with treatment-resistant major depressive disorder (TRD)
# Assay: Phase 1/2 clinical trial of inhaled 5-MeO-DMT in patients with TRD
# Conditions: for MADRS Suicidal Thoughts item score, sum of patients: baseline 8; for MADRS Inner Tension item score, sum of patients / BPRS Emotional Withdrawal item score, sum of patients: baseline 13; for MADRS Concentration Difficulties item score, sum of patients / MADRS Inability to Feel item score, sum of patients / MADRS Lassitude item score, sum of patients / MADRS Pessimistic Thoughts item score, sum of patients: baseline 16; for BPRS Blunted Affect item score, sum of patients: baseline 11; for BPRS Guilt Feelings item score, sum of patients: baseline 18; for MADRS Reduced Sleep item score, sum of patients: baseline 12; for BPRS Anxiety item score, sum of patients: baseline 25; for patients with at least one ADR: n=4
# [1] = 12 mg n=4, 3 hours, baseline 14
structure (smiles),measurement,setting,value
COc1ccc2[nH]cc(CCN(C)C)c2c1 [5-MeO-DMT],"MADRS Suicidal Thoughts item score, sum of patients","12 mg n=4, 2 hours",3
same,"MADRS Inner Tension item score, sum of patients","12 mg n=4, 2 hours",2
same,"MADRS Concentration Difficulties item score, sum of patients","12 mg n=4, 2 hours",7
same,"MADRS Inability to Feel item score, sum of patients","12 mg n=4, 2 hours",9
same,"MADRS Lassitude item score, sum of patients","12 mg n=4, 2 hours",10
same,"MADRS Pessimistic Thoughts item score, sum of patients","12 mg n=4, 2 hours",8
same,"BPRS Blunted Affect item score, sum of patients","12 mg n=4, 3 hours",8
same,"BPRS Tension item score, sum of patients",[1],9
same,BPRS Tension percentage improvement,[1],36%
same,"BPRS Guilt Feelings item score, sum of patients","12 mg n=4, 3 hours",9
same,"MADRS Suicidal Thoughts item score, sum of patients","12 mg n=4, day 1",5
same,"BPRS Blunted Affect item score, sum of patients","12 mg n=4, day 1",6
same,"MADRS Reduced Sleep item score, sum of patients","12 mg n=4, day 1",10
same,"BPRS Emotional Withdrawal item score, sum of patients","12 mg n=4, day 1",8
same,"MADRS Inner Tension item score, sum of patients","12 mg n=4, day 1",3
same,"BPRS Tension item score, sum of patients","12 mg n=4, day 1, baseline 14",6
same,"MADRS Concentration Difficulties item score, sum of patients","12 mg n=4, day 1",2
same,"MADRS Inability to Feel item score, sum of patients","12 mg n=4, day 1",1
same,"MADRS Lassitude item score, sum of patients","12 mg n=4, day 1",0
same,"MADRS Pessimistic Thoughts item score, sum of patients","12 mg n=4, day 1",7
same,"BPRS Guilt Feelings item score, sum of patients","12 mg n=4, day 1",5
same,"BPRS Anxiety item score, sum of patients","12 mg n=4, day 1",6
same,"MADRS Suicidal Thoughts item score, sum of patients","12 mg n=4, day 7",7
same,"BPRS Blunted Affect item score, sum of patients","12 mg n=4, day 7",5
same,"MADRS Reduced Sleep item score, sum of patients","12 mg n=4, day 7",6
same,"BPRS Emotional Withdrawal item score, sum of patients","12 mg n=4, day 7",6
same,"MADRS Inner Tension item score, sum of patients","12 mg n=4, day 7",5
same,"BPRS Tension item score, sum of patients","12 mg n=4, day 7, baseline 14",6
same,"MADRS Concentration Difficulties item score, sum of patients","12 mg n=4, day 7",3
same,"MADRS Inability to Feel item score, sum of patients","12 mg n=4, day 7",1
same,"MADRS Lassitude item score, sum of patients","12 mg n=4, day 7",3
same,"MADRS Pessimistic Thoughts item score, sum of patients","12 mg n=4, day 7",8
same,"BPRS Guilt Feelings item score, sum of patients","12 mg n=4, day 7",5
same,"BPRS Anxiety item score, sum of patients","12 mg n=4, day 7",6
same,"changes in safety laboratory analyses, vital signs, psychiatric safety assessments or measures of cognitive function",Part A and Part B,No clinically significant changes
same,ADR severity and outcome,"Part A, 12 mg and 18 mg groups",mild and resolved spontaneously
same,patients with at least one ADR,"Part A, 12 mg single dose",3 of 4
same,patients with at least one ADR,"Part A, 18 mg single dose",3 of 4
